{"source": "ChEMBL document CHEMBL4888484", "about": "“Replenishing the malaria drug discovery pipeline: Screening and hit evaluation of the MMV Hit Generation Library 1 (HGL1) against asexual blood stage Plasmodium falciparum ,using a nano luciferase reporter read-out” (2022)", "note": "The campaign covered roughly 150,000 compounds. About 540 (0.36%) showed an effect of 50% or more. The list shows a part of the results."}
{"tested_on": "Plasmodium falciparum", "experiment": "Primary screen in NF54 nanoGlo assay, in single point, at 2uM, 72h; a lower Z score goes with more inhibition", "format": "functional, Erythrocyte", "conditions": "timepoint 72 hour", "units": {"% Inhibition": "%"}}
{"smiles": "CC(C1CC1)n1cc(NC(=O)N[C@H]2CCO[C@@H]2c2cnn(C)c2)cn1", "note": "(some centres undefined)", "% Inhibition": -10, "Z score": 1.33}
{"smiles": "CCCN1C=NS(=O)(=O)c2cc(C(=O)NCCC(C)C)ccc21", "% Inhibition": -8, "Z score": 1.35}
{"smiles": "Cc1ccnc(-n2cccc2CN2CCN(c3nccnc3C#N)CC2)c1", "% Inhibition": 2, "Z score": -0.23}
{"smiles": "C[C@H]1CCCCN1C1CN(c2ncnc3c2CCC3)C1", "% Inhibition": -15, "Z score": 2.1}
{"smiles": "CC(C)c1noc(N2CCC3CCC(C2)N3C(C)C)n1", "note": "(centres undefined)", "% Inhibition": -7, "Z score": 0.8}
{"smiles": "COC(=O)CCN1C[C@H](OCc2cccc(OC)c2)CN(C(=O)Cn2ccc(C)n2)CC1=O", "% Inhibition": 2, "Z score": -0.32}
{"smiles": "COc1cc(-c2noc(-c3ccc(C)cc3)n2)ccc1OCC(=O)NC1CCCC1", "% Inhibition": -11, "Z score": 2.04}
{"smiles": "CC1CCC(N2CC(C(=O)OCC3CCCCO3)CC2=O)CC1", "note": "(centres undefined)", "% Inhibition": -4, "Z score": 0.4}
{"smiles": "Cc1n[nH]c(C)c1CC(=O)NC1CCCC1(C)CO", "note": "(centres undefined)", "% Inhibition": -1, "Z score": 0.12}
{"smiles": "C=C(C)CS(=O)(=O)N1C[C@H](C)Oc2ccc(OC)cc21", "% Inhibition": 4, "Z score": -0.68}
{"smiles": "CCn1nccc1C(=O)N1CC2(C[C@H](N3CCOCC3)CO2)C1", "% Inhibition": -16, "Z score": 2.42}
{"smiles": "CC1CC(Nc2cccc(COCCc3ccccc3)c2)C(=O)O1", "note": "(centres undefined)", "% Inhibition": -5, "Z score": 0.5}
{"smiles": "CCn1ccnc1CN1CCc2ccc(F)c(C(=O)O)c2C1", "% Inhibition": 3, "Z score": -0.44}
{"smiles": "CC(C)c1nc(-c2cc(-n3cnnn3)ccc2O)n(-c2ccccn2)n1", "% Inhibition": -2, "Z score": 0.32}
{"smiles": "O=S1(=O)CCC(c2nnc(N3CCCC3C3CCC3)n2CC2CCOC2)C1", "note": "(centres undefined)", "% Inhibition": -7, "Z score": 1.04}
{"smiles": "CCc1cnc(NCc2c[nH]nc2-c2cccnc2)s1", "% Inhibition": 18, "Z score": -1.57}
{"smiles": "CN1C(=O)C2(CCN(c3nc(C(N)=O)cs3)CC2)c2ccccc21", "% Inhibition": 14, "Z score": -1.86}
{"smiles": "O=C(N[C@H]1CCN(c2ccc(F)cc2F)C1)c1cccnc1", "% Inhibition": -4, "Z score": 0.58}
{"smiles": "CCC(c1cccs1)N1C(=O)[C@H]2CN(S(=O)(=O)c3ccc(F)cc3F)C[C@H]2C1=O", "note": "(some centres undefined)", "% Inhibition": -7, "Z score": 0.81}
{"smiles": "CC(=O)c1ccc(F)c(-c2cc(C)cc3c2OC(CNC(=O)C2CCCO2)C3)c1", "note": "(centres undefined)", "% Inhibition": -3, "Z score": 0.44}
{"smiles": "Cc1ccc(C(=O)NC[C@H]2Cc3ccccc3O2)cn1", "% Inhibition": -14, "Z score": 1.29}
{"smiles": "COc1ccc(C2NC(C(=O)O)Cc3nc[nH]c32)cc1COc1ccccc1F", "note": "(centres undefined)", "% Inhibition": -11, "Z score": 1.39}
{"smiles": "COCc1cccc(-c2ncnn2Cc2cccc(OC)c2)n1", "% Inhibition": 6, "Z score": -0.82}
{"smiles": "Cc1ccc(-c2noc(N3CCOC4(CCOCC4)C3)n2)cc1", "% Inhibition": 1, "Z score": -0.12}
{"smiles": "O=C(c1ccccc1NS(=O)(=O)c1ccc(Cl)s1)N1CCN(C(c2ccccc2)c2ccccc2)CC1", "% Inhibition": -6, "Z score": 1}
{"smiles": "O=S(=O)(CC1(F)CC1)NCCc1ccc2c(c1)OCCO2", "% Inhibition": -13, "Z score": 1.69}
{"smiles": "COC(=O)CC(C)(C)CC(=O)N1CC(C)C(C)C1", "note": "(centres undefined)", "% Inhibition": 3, "Z score": -0.53}
{"smiles": "COC(=O)c1noc2c(Cl)cccc12", "% Inhibition": -31, "Z score": 3.09}
{"smiles": "Cc1nn(Cc2cccc3c2OCCO3)c(N)c1C#N", "% Inhibition": -5, "Z score": 0.84}
{"smiles": "CN(C(=O)C(=O)Nc1ccnn1C)C1CCCC1Cc1ccccc1", "note": "(centres undefined)", "% Inhibition": 0, "Z score": -0.05}
{"smiles": "O=C(N[C@@H]1COCC[C@@H]1OCC1CCC1)C1CCOCC1", "% Inhibition": -16, "Z score": 1.47}
{"smiles": "COc1ccc(S(=O)(=O)NCc2cc(C3CC3)ncn2)cc1", "% Inhibition": 8, "Z score": -1.09}
{"smiles": "CCc1nc(N2CCCN(C(=O)c3ccc(OC)cc3)CC2)c2cnn(-c3ccc(C)cc3)c2n1", "% Inhibition": -9, "Z score": 1.43}
{"smiles": "CC[C@@]1(C)CC(=O)N(Cc2ncnn2C)C1=O", "% Inhibition": -14, "Z score": 1.3}
{"smiles": "Cn1cc(C(=O)N2CCc3nc(NC(=O)c4ccoc4)sc3C2)nn1", "% Inhibition": 2, "Z score": -0.33}
{"smiles": "O=C(NCCc1c[nH]cn1)c1cccc(-n2nnc3cccnc32)c1", "% Inhibition": -12, "Z score": 2.41}
{"smiles": "CCn1nc(CN2CCC[C@H](NC(=O)c3cccc(OC)c3OC)C2)c2c1CCOC2", "% Inhibition": -10, "Z score": 0.88}
{"smiles": "Cc1ccc(C(N)=O)cc1NC(=O)C(F)(F)C(F)F", "% Inhibition": -2, "Z score": 0.29}
{"smiles": "OCc1ccc(-c2nccn2Cc2ccncn2)o1", "% Inhibition": 2, "Z score": -0.33}
{"smiles": "CCNc1ncc(CN2CCC(C(=O)NCc3ccccc3)CC2)cn1", "% Inhibition": -28, "Z score": 2.51}
{"smiles": "O=C(Cn1ncc(=O)c2ccccc21)N1CCC[C@H]1c1ccncc1", "% Inhibition": -2, "Z score": 0.2}
{"smiles": "O=S1(=O)CCC(Nc2nnc(-c3ccccc3)s2)CC1", "% Inhibition": -8, "Z score": 1.14}
{"smiles": "Cc1cnn(CCN2CCC[C@H](n3cc(CO)nn3)C2)c1", "% Inhibition": 3, "Z score": -0.56}
{"smiles": "C=CCN(CCO)S(=O)(=O)c1c(F)cccc1Cl", "% Inhibition": -9, "Z score": 1.13}
{"smiles": "CC(C)CCn1cc(-c2cc(CO)ncc2F)cn1", "% Inhibition": -6, "Z score": 1.04}
{"smiles": "CO[C@@H](CS(=O)(=O)Nc1nn2c(=O)cc(C)nc2[nH]1)c1ccc(F)cc1", "% Inhibition": -12, "Z score": 2.16}
{"smiles": "Cc1ccccc1NC(=O)N1CCN(C(=O)c2nonc2N)CC1", "% Inhibition": 36, "Z score": -4.83}
{"smiles": "O=C1CC[C@H](CCNCc2cc3c(cc2Cl)OCO3)N1Cc1cccc2ccccc12", "% Inhibition": -9, "Z score": 1.56}
{"smiles": "COc1cc(Cl)cc(C(=O)N2CCC(n3cn[nH]c3=O)CC2)c1", "% Inhibition": 12, "Z score": -1.71}
{"smiles": "Cn1ncnc1NC(=O)N1CCC[C@]1(C)Cc1ccc(Cl)s1", "% Inhibition": 4, "Z score": -0.55}
{"smiles": "CCc1ccc(-c2nc(C(C)(C)OC)no2)cc1S(C)(=O)=O", "% Inhibition": 1, "Z score": -0.15}
{"smiles": "CCO[C@@H](C)c1nccn1CC1CCC1", "% Inhibition": -1, "Z score": 0.09}
{"smiles": "COc1cc(Nc2c(C(=O)N3CCOCC3)cnc3nc(C)ccc23)cc(OC)c1OC", "% Inhibition": -10, "Z score": 1.59}
{"smiles": "Cc1ccc(C)c(CN2C(=O)N[C@@]3(CCCCc4ccccc43)C2=O)c1", "% Inhibition": -6, "Z score": 1.37}
{"smiles": "CCC(=O)N1CCN(c2nc(C3CC3)nc(COC)c2Cc2cccc(C)c2)CC1", "% Inhibition": -7, "Z score": 0.62}
{"smiles": "CC(C)C1CC(N2CCCC2)CN1C(=O)CC1CCCO1", "note": "(centres undefined)", "% Inhibition": 0, "Z score": 0.06}
{"smiles": "COC1CCCC1C1COCCN1Cc1cccc(C(=O)O)c1", "note": "(centres undefined)", "% Inhibition": 1, "Z score": -0.27}
{"smiles": "COc1cc(-c2noc([C@H]3CCN(C)[C@@H](C)C3)n2)ncn1", "% Inhibition": 4, "Z score": -0.71}
{"smiles": "CCOc1ccccc1CN(Cc1cc(Cl)c(O)c(OC)c1)C1CC1", "% Inhibition": -5, "Z score": 1}
{"smiles": "CC(C)Cn1ncc(-c2nc([C@@H]3CCCCCN3)no2)c1C(F)F", "% Inhibition": -18, "Z score": 1.67}
{"smiles": "Cc1[nH]ncc1C(=O)Nc1ccc(N2CCOC[C@@H]2C)cc1", "% Inhibition": -8, "Z score": 1.59}
{"smiles": "C[C@@H]1CN(CC(=O)NCCCc2nccs2)C[C@H](C)O1", "% Inhibition": -10, "Z score": 1.69}
{"smiles": "Cc1nscc1C(=O)Nc1nc(-c2ccc3c(c2)OCCO3)cs1", "% Inhibition": -6, "Z score": 0.58}
{"smiles": "O=C(Nc1nc(-c2c(F)cccc2F)cs1)[C@H]1OCC[C@H]1Cn1ccnc1", "% Inhibition": -1, "Z score": 0.2}
{"smiles": "CCNC(=O)N(Cc1ccco1)Cc1c(-c2ccccc2)nn(C)c1Oc1ccccc1", "% Inhibition": 3, "Z score": -0.35}
{"smiles": "Cc1noc(CNC(=O)N(C)CC2(c3ccccc3)CC2)n1", "% Inhibition": -9, "Z score": 1.49}
{"smiles": "CCCn1c(O)c(C(=O)NCCc2ccc(OC)cc2)c(=O)c2ccccc21", "% Inhibition": -5, "Z score": 0.59}
{"smiles": "CN(CCc1nc(-c2ccccc2)no1)Cc1cnn(C)c1", "% Inhibition": 8, "Z score": -0.74}
{"smiles": "Cc1ccc(C(=O)NCC(C)C)cc1N", "% Inhibition": -11, "Z score": 1.42}
{"smiles": "CCc1csc(CNCc2ccc(F)cc2OC)n1", "% Inhibition": -12, "Z score": 1.63}
{"smiles": "CC[C@@H](CO)N(Cc1ccsc1)C(=O)c1cncc(C)c1", "% Inhibition": -24, "Z score": 2.36}
{"smiles": "Cc1c(C#N)c(N)n(CCC2=CCCCC2)c1C", "% Inhibition": -8, "Z score": 1.02}
{"smiles": "CCC1CCCCC1OCC(=O)Nc1ccncc1", "note": "(centres undefined)", "% Inhibition": -15, "Z score": 1.26}
{"smiles": "O=C(Cc1cn2ccsc2n1)N1CCCCCCC1", "% Inhibition": -6, "Z score": 0.91}
{"smiles": "COCc1nsc(N[C@H]2CCN(c3ccc(Cl)c(F)c3)C2)n1", "% Inhibition": -3, "Z score": 0.5}
{"smiles": "CC1CCN(C(=O)c2ccccc2N2CCC(NC(=O)c3ccccc3)CC2)CC1", "% Inhibition": -12, "Z score": 1.08}
{"smiles": "CC(C)(C)C(NCc1csc(C2CCCO2)n1)c1ccccc1", "note": "(centres undefined)", "% Inhibition": -4, "Z score": 0.45}
{"smiles": "CC(C)n1ncc(C(=O)N2CC3CCCCCC32)c1C(F)(F)F", "note": "(centres undefined)", "% Inhibition": -13, "Z score": 2.05}
{"smiles": "CC1=NO[C@@](C)(CNC(=O)c2ccccc2F)C1", "% Inhibition": -4, "Z score": 0.6}
{"smiles": "O=C(NC1CC1)C1CCN(c2ccc(-n3cccn3)nn2)CC1", "% Inhibition": -2, "Z score": 0.3}
{"smiles": "CCN(Cc1ccccn1)C(=O)C(F)(F)c1ccccn1", "% Inhibition": -6, "Z score": 0.53}
{"smiles": "CC[C@H](NCc1nncn1C)c1cc(F)cc(Br)c1", "% Inhibition": 0, "Z score": -0.02}
{"smiles": "O=C(NC1CCN(Cc2ccccc2F)CC1)c1nccnc1NC(=O)C1CCCCC1", "% Inhibition": -7, "Z score": 0.8}
{"smiles": "COCCN(C(=O)c1cnc(C(C)(C)C)nc1O)C1CCN(C)CC1", "% Inhibition": -5, "Z score": 0.59}
{"smiles": "CC[C@H](C)NC(=O)Cn1ncc2c(N3CCN(c4ccccn4)CC3)ncnc21", "% Inhibition": -11, "Z score": 1.27}
{"smiles": "Cc1cc2ncc(NC(=O)Nc3ccc4c(c3)OCO4)cn2n1", "% Inhibition": -9, "Z score": 1.16}
{"smiles": "Cc1cccc(CC2(NC(=O)N3CCC[C@H](C(=O)N4CCCC4)C3)CC2)c1", "% Inhibition": -10, "Z score": 1.04}
